# Measured values taken from PMC9911399, “Two distinct binding modes provide the RNA-binding protein RbFox with extraordinary sequence specificity”.
# Changes are numbered by the printed parent chain; changes in the protein carry UniProt numbers. Some of the results follow.
# T1: RBFOX1 RRM (Homo sapiens, UniProt Q9NWB1 109-208)
# T1 sequence: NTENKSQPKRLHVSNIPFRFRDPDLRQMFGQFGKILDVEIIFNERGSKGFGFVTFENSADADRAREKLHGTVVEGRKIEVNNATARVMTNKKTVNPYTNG
# B1: CCUUCGC (DNA:RNA)
# RNA: GGGAGACCGGAAUUCAGAUUGUCCCCUUCGCUUAAAUCCCGUCGUAGCCACCA
# DNA 1: CAATCTGAATTCCGGTCTCCC
# DNA 2: TGGTGGCTACGACGGGATT
# B2: UAAGCAG (DNA:RNA)
# RNA: B1 RNA with C25U, C26A, U27A, U28G, G30A, C31G
# DNA 1: CAATCTGAATTCCGGTCTCCC
# DNA 2: TGGTGGCTACGACGGGATT
# B3: CGUAAUU (DNA:RNA)
# RNA: B1 RNA with C26G, U28A, C29A, G30U, C31U
# DNA 1: CAATCTGAATTCCGGTCTCCC
# DNA 2: TGGTGGCTACGACGGGATT
# B4: GCCAGUA (DNA:RNA)
# RNA: B1 RNA with C25G, U27C, U28A, C29G, G30U, C31A
# DNA 1: CAATCTGAATTCCGGTCTCCC
# DNA 2: TGGTGGCTACGACGGGATT
# B5: UUAAGGC (DNA:RNA)
# RNA: B1 RNA with C25U, C26U, U27A, U28A, C29G
# DNA 1: CAATCTGAATTCCGGTCTCCC
# DNA 2: TGGTGGCTACGACGGGATT
# B6: CUCGCGU (DNA:RNA)
# RNA: B1 RNA with C26U, U27C, U28G, C31U
# DNA 1: CAATCTGAATTCCGGTCTCCC
# DNA 2: TGGTGGCTACGACGGGATT
# B7: UUCCGCC (DNA:RNA)
# RNA: B1 RNA with C25U, C26U, U27C, U28C, C29G, G30C
# DNA 1: CAATCTGAATTCCGGTCTCCC
# DNA 2: TGGTGGCTACGACGGGATT
# B8: GUAAAUG (DNA:RNA)
# RNA: GGGAGACCGGAAUUCAGAUUGUCCGUAAAUGUUAAAUCCCGUCGUAGCCACCA
# DNA 1: CAATCTGAATTCCGGTCTCCC
# DNA 2: TGGTGGCTACGACGGGATT
# B9: CAGAAGU (DNA:RNA)
# RNA: B1 RNA with C26A, U27G, U28A, C29A, C31U
# DNA 1: CAATCTGAATTCCGGTCTCCC
# DNA 2: TGGTGGCTACGACGGGATT
# B10: UCGCAUU (DNA:RNA)
# RNA: B8 RNA with G25U, U26C, A27G, A28C, G31U
# DNA 1: CAATCTGAATTCCGGTCTCCC
# DNA 2: TGGTGGCTACGACGGGATT
# B11: AUGGCUC (DNA:RNA)
# RNA: B1 RNA with C25A, C26U, U27G, U28G, G30U
# DNA 1: CAATCTGAATTCCGGTCTCCC
# DNA 2: TGGTGGCTACGACGGGATT
# B12: CAAGGUG (DNA:RNA)
# RNA: B8 RNA with G25C, U26A, A28G, A29G
# DNA 1: CAATCTGAATTCCGGTCTCCC
# DNA 2: TGGTGGCTACGACGGGATT
# B13: CACUUAG (DNA:RNA)
# RNA: B1 RNA with C26A, U27C, C29U, G30A, C31G
# DNA 1: CAATCTGAATTCCGGTCTCCC
# DNA 2: TGGTGGCTACGACGGGATT
# B14: AUACUUG (DNA:RNA)
# RNA: B8 RNA with G25A, A28C, A29U
# DNA 1: CAATCTGAATTCCGGTCTCCC
# DNA 2: TGGTGGCTACGACGGGATT
# B15: CCUCUCU (DNA:RNA)
# RNA: B1 RNA with U28C, C29U, G30C, C31U
# DNA 1: CAATCTGAATTCCGGTCTCCC
# DNA 2: TGGTGGCTACGACGGGATT
# B16: UUUUAGC (DNA:RNA)
# RNA: B1 RNA with C25U, C26U, C29A
# DNA 1: CAATCTGAATTCCGGTCTCCC
# DNA 2: TGGTGGCTACGACGGGATT
# B17: GUGAGUG (DNA:RNA)
# RNA: B8 RNA with A27G, A29G
# DNA 1: CAATCTGAATTCCGGTCTCCC
# DNA 2: TGGTGGCTACGACGGGATT
# B18: UAUCAAU (DNA:RNA)
# RNA: B1 RNA with C25U, C26A, U28C, C29A, G30A, C31U
# DNA 1: CAATCTGAATTCCGGTCTCCC
# DNA 2: TGGTGGCTACGACGGGATT
# B19: GUUAGCU (DNA:RNA)
# RNA: B8 RNA with A27U, A29G, U30C, G31U
# DNA 1: CAATCTGAATTCCGGTCTCCC
# DNA 2: TGGTGGCTACGACGGGATT
# B20: CUUGAUA (DNA:RNA)
# RNA: B8 RNA with G25C, A27U, A28G, G31A
# DNA 1: CAATCTGAATTCCGGTCTCCC
# DNA 2: TGGTGGCTACGACGGGATT
# B21: AUCAAAC (DNA:RNA)
# RNA: B8 RNA with G25A, A27C, U30A, G31C
# DNA 1: CAATCTGAATTCCGGTCTCCC
# DNA 2: TGGTGGCTACGACGGGATT
# B22: GGAUGGU (DNA:RNA)
# RNA: B1 RNA with C25G, C26G, U27A, C29G, C31U
# DNA 1: CAATCTGAATTCCGGTCTCCC
# DNA 2: TGGTGGCTACGACGGGATT
# B23: GGGUUAG (DNA:RNA)
# RNA: B8 RNA with U26G, A27G, A28U, A29U, U30A
# DNA 1: CAATCTGAATTCCGGTCTCCC
# DNA 2: TGGTGGCTACGACGGGATT
# B24: UCGCGAU (DNA:RNA)
# RNA: B1 RNA with C25U, U27G, U28C, C29G, G30A, C31U
# DNA 1: CAATCTGAATTCCGGTCTCCC
# DNA 2: TGGTGGCTACGACGGGATT
# B25: CGCGCGC (DNA:RNA)
# RNA: B1 RNA with C26G, U27C, U28G
# DNA 1: CAATCTGAATTCCGGTCTCCC
# DNA 2: TGGTGGCTACGACGGGATT
# B26: UUUCCAU (DNA:RNA)
# RNA: B1 RNA with C25U, C26U, U28C, G30A, C31U
# DNA 1: CAATCTGAATTCCGGTCTCCC
# DNA 2: TGGTGGCTACGACGGGATT
# B27: GAUUAUC (DNA:RNA)
# RNA: B1 RNA with C25G, C26A, C29A, G30U
# DNA 1: CAATCTGAATTCCGGTCTCCC
# DNA 2: TGGTGGCTACGACGGGATT
# B28: CUCUAGC (DNA:RNA)
# RNA: B1 RNA with C26U, U27C, C29A
# DNA 1: CAATCTGAATTCCGGTCTCCC
# DNA 2: TGGTGGCTACGACGGGATT
# B29: UCUUCGG (DNA:RNA)
# RNA: B1 RNA with C25U, C31G
# DNA 1: CAATCTGAATTCCGGTCTCCC
# DNA 2: TGGTGGCTACGACGGGATT
# B30: UGGCGUG (DNA:RNA)
# RNA: B8 RNA with G25U, U26G, A27G, A28C, A29G
# DNA 1: CAATCTGAATTCCGGTCTCCC
# DNA 2: TGGTGGCTACGACGGGATT
# B31: UAGGACC (DNA:RNA)
# RNA: B1 RNA with C25U, C26A, U27G, U28G, C29A, G30C
# DNA 1: CAATCTGAATTCCGGTCTCCC
# DNA 2: TGGTGGCTACGACGGGATT
# Target: T1, RBFOX1 RRM
# Experiment: EMSA; HiTS-Eq, 1 nM pool, 10 min; buffer printed only for the single-RNA assays: 10 mM Tris pH 7.5, 150 mM NaCl, 3.4 mM EDTA, 0.001% NP-40, 30 C
# Settings: tags: His6 N-terminal (pET28a); label: 5' 32P
# Method in brief: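 Purified RbFox RRM, wild type or mutant, was incubated for 10 min in 50 µL with 1 nM of a 5′-radiolabelled RNA pool carrying 7 randomized nucleotides, whose flanks were annealed to DNA oligonucleotides, over a series of increasing protein concentrations. Unbound RNA was resolved on 8% native PAGE, cut out, reverse-transcribed, barcoded by PCR and sequenced on an Illumina HiSeq 2500. Relative association constants were derived from changes in read counts for each RNA species versus the control reaction and normalised to the cognate motif.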
row,Binder,binding signal
1,B1,0.0114 KA relative to UGCAUGU
2,B2,0.0107 KA relative to UGCAUGU
3,B3,0.00295 KA relative to UGCAUGU
4,B4,0.00844 KA relative to UGCAUGU
5,B5,0.00877 KA relative to UGCAUGU
6,B6,0.0127 KA relative to UGCAUGU
7,B7,0.00489 KA relative to UGCAUGU
8,B8,0.00894 KA relative to UGCAUGU
9,B9,0.00381 KA relative to UGCAUGU
10,B10,0.013 KA relative to UGCAUGU
11,B11,0.0138 KA relative to UGCAUGU
12,B12,0.00971 KA relative to UGCAUGU
13,B13,0.00567 KA relative to UGCAUGU
14,B14,0.00872 KA relative to UGCAUGU
15,B15,0.00874 KA relative to UGCAUGU
16,B16,0.0132 KA relative to UGCAUGU

row,Binder,binding signal
1,B17,0.0201 KA relative to UGCAUGU
2,B18,0.00404 KA relative to UGCAUGU
3,B19,0.00988 KA relative to UGCAUGU
4,B20,0.00758 KA relative to UGCAUGU
5,B21,0.000367 KA relative to UGCAUGU
6,B22,0.0187 KA relative to UGCAUGU
7,B23,0.0153 KA relative to UGCAUGU
8,B24,0.00751 KA relative to UGCAUGU
9,B25,0.0126 KA relative to UGCAUGU
10,B26,0.00307 KA relative to UGCAUGU
11,B27,0.00889 KA relative to UGCAUGU
12,B28,0.00326 KA relative to UGCAUGU
13,B29,0.013 KA relative to UGCAUGU
14,B30,0.0332 KA relative to UGCAUGU
15,B31,0.00329 KA relative to UGCAUGU
